According to patent US20220249679A1 (Mitsubishi Tanabe Pharma Corporation, priority 2018, published 2022):

T1: Human CD138 His (Homo sapiens, UniProt P18827)
T1 construct: His
T1 sequence (P18827 23-310): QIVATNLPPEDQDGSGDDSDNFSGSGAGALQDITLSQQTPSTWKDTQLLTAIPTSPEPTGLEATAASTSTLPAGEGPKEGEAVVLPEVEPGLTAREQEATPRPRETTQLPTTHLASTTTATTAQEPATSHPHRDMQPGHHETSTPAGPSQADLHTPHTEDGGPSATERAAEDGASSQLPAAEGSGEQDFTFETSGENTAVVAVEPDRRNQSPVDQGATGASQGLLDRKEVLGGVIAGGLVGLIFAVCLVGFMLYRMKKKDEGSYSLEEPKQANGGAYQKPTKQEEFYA

B1: FF2L4C3 (protein)
chain: GVTLFVALYDYEVYGPTPMLSFHKGEKFQILNSSEGPYWEARSLTTGETGLIPSNYVAPVDSIQ
modifications: left off: small tags and cut ends
B2: FF43L65D5 (protein)
chain: B1 chain with N32R, S33K, S34G, E35K, T45A
modifications: left off: small tags and cut ends
B3: FF44L65B7 (protein)
chain: B1 chain with N32R, S33R, S34G, E35S
modifications: left off: small tags and cut ends
B4: FF44L65G7 (protein)
chain: B1 chain with N32R, S33G, S34G, E35D
modifications: left off: small tags and cut ends
B5: FF44L65G12 (protein)
chain: B1 chain with N32R, S33G, S34G, E35Q
modifications: left off: small tags and cut ends
B6: FF48L66G7 (G7) (protein)
chain: B1 chain with N32K, S33G, S34G, E35S
modifications: left off: small tags and cut ends
B7: F12P18D4.a: murine anti-CD138 hybridoma antibody; VH SEQ ID NO:88, VL SEQ ID NO:40 (antibody, listed as Mus musculus, V domains shown)
VH: EVQLQQSGPELVKPGASVKMSCKASGYTFADYYMKWVKQSHGKSLEWIGDINPNSGDTFYNHKFKGKATLTVDKSSSTAYMQLNSLTSEDSAVYYCARTYYDYWGQGTTLTVSS
VL: DVVMTQTPLTLSVTIGQSASISCKSSQSLLYSNGKTYLNWLLQRPGQSPKRLIYLVSKVDSGVPDRFTGSGSGTDFTLSISRVEAEDLGVYYCVQGTHFPLTFGVGTKLELKR
B8: FF40L54A5 (protein)
chain: GVTLFVALYDYEVMSTTALSFHKGEKFQILSQSPHGQYWEARSLTTGETGWIPSNYVAPVDSIQ
modifications: left off: small tags and cut ends
B9: hF6-LC-G7: bi-specific: G7 Fynomer attached to the C-terminal end of the light chain of the hF6 antibody (antibody)
heavy: QVQLVQSGAEVVKPGASVKLSCKASGYTFTSYYLYWVKKAPGQGLDWIGEIYPRSGGTNINEKFLSRVTLTADTSTSTAYLELSSLTSEDTAVYYCTRSLLYWGQGTTLTVSS[letters of human IgG1 constant region left out]
light: DVVMTQTPLSLSVTPGQPASISCKSSQSLLASDGKTYLNWLLQRPGQSPKRLIYLVSKLDSGVPNRFSGSGSGTDFTLQISRVEAEDVGLYYCWQGAHFPFTFGSGTKLEIKRTVAAPSVFIFPPSDEQLKSGTASVVCLLNNFYPREAKVQWKVDNALQSGNSQESVTEQDSKDSTYSLSSTLTLSKADYEKHKVYACEVTHQGLSSPVTKSFNRGECGGGGSGGGGSGGGGSGVTLFVALYDYEVYGPTPMLSFHKGEKFQILKGGSGPYWEARSLTTGETGLIPSNYVAPVDSIQ
B10: hF6-LN-G7: bi-specific: G7 Fynomer attached to the N-terminal end of the light chain of the hF6 antibody (antibody)
heavy: B9 heavy
light: GVTLFVALYDYEVYGPTPMLSFHKGEKFQILKGGSGPYWEARSLTTGETGLIPSNYVAPVDSIQGGGGSGGGGSGGGGSDVVMTQTPLSLSVTPGQPASISCKSSQSLLASDGKTYLNWLLQRPGQSPKRLIYLVSKLDSGVPNRFSGSGSGTDFTLQISRVEAEDVGLYYCWQGAHFPFTFGSGTKLEIKRTVAAPSVFIFPPSDEQLKSGTASVVCLLNNFYPREAKVQWKVDNALQSGNSQESVTEQDSKDSTYSLSSTLTLSKADYEKHKVYACEVTHQGLSSPVTKSFNRGEC
B11: hF6-HC-G7: bi-specific: G7 Fynomer attached to the C-terminal end of the heavy chain of the hF6 antibody (antibody)
heavy: QVQLVQSGAEVVKPGASVKLSCKASGYTFTSYYLYWVKKAPGQGLDWIGEIYPRSGGTNINEKFLSRVTLTADTSTSTAYLELSSLTSEDTAVYYCTRSLLYWGQGTTLTVSS[letters of human IgG1 constant region left out]GGGGSGGGGSGGGGSGVTLFVALYDYEVYGPTPMLSFHKGEKFQILKGGSGPYWEARSLTTGETGLIPSNYVAPVDSIQ
light: DVVMTQTPLSLSVTPGQPASISCKSSQSLLASDGKTYLNWLLQRPGQSPKRLIYLVSKLDSGVPNRFSGSGSGTDFTLQISRVEAEDVGLYYCWQGAHFPFTFGSGTKLEIKRTVAAPSVFIFPPSDEQLKSGTASVVCLLNNFYPREAKVQWKVDNALQSGNSQESVTEQDSKDSTYSLSSTLTLSKADYEKHKVYACEVTHQGLSSPVTKSFNRGEC

What was measured:
FGFR3+ KMS-11 cells = test: Internalization assay (cytotoxicity of Fynomer cross-linked with MMAF-conjugated 9E10); assay type: cell-based
Description: In order to assess the ability of the Fyn SH3-derived polypeptides binding to FGFR3 to internalize upon binding to the target, an internalization assay based on the intracellular delivery of a cytotoxic agent was established.
MMAF is an antimitotic agent (blocks tubulin polymerization) and is active only upon internalization into the cells. Therefore, this assay indicates how well the Fynomers facilitate internalization of MMAF. 50 μL of KMS-11 cells at 2×10^5 cells/mL were seeded into a 96-well flat bottomed plate (Corning Costar 3610), to give 10,000 cell per well. The cells were incubated for 4 hours to allow the cells to adhere (37° C., 5% CO2). Fynomers and 9E10-MMAF were mixed at a 3:1 ratio. A 4× stock of Fynomer (4 pM) and a 4× stock of 9E10-MMAF (1.33 pM) were prepared in RPMI media (see section 5.4.1) and mixed 1:1 (40 μl+40 μL). This mixture was then serially diluted 1 in 3, to give a concentration range 1000 nM-50 pM. 50 μL of the sample was added to the 50 μL of cells (as seeded above), and incubated for 5 days (37° C., 5% CO2). Appropriate controls, the wild-type Fynomer FynSH3, MMAF-9E10 without Fynomer and also cells without addition of any reagents, were included. All samples were prepared in duplicate. After 5 days, 100 μL Cell titer glo (Promega G7573) was added to each well and incubated with gentle shaking for 10 min in the dark. As a read-out for cell viability, luminescence was measured using a Tecan M1000 instrument. Analysis was performed using Prism 6. The data was transformed (X=log X), and analyzed using a non-linear fit, log(inhibitor) vs. response—Variable slope (4 parameters).

FGFR3-negative N87 cells = test: Flow cytometry on FGFR3-negative control cells N87; assay type: binding; details: FIG. 11B
Description: (§1) Binding of Fynomers to huFGFR3 on cells was analyzed by flow cytometry using KMS-11 cells (JCRB1179) as FGFR3-positive cells and N87 (ATCC, CRL-5822) as a FGFR3-negative control cell line. Both KMS-11 and N87 cells were maintained in RPMI1640 medium (Invitrogen 52400-25). All media were supplemented with 25 U/mL penicillin, 25 µg/mL streptomycin and 10% FCS. To harvest the semi-adherent KMS-11 cells from a T150 flask, the supernatant was removed into a 50 mL falcon tube, and the cells were washed with 10 ml PBS, which was also added to the falcon tube. 2 ml of Accutase (Sigma A6964) was added to the flask, and incubated for 10 min at 37° C. The Accutase was inactivated with the addition of 10 ml medium and added to the falcon tube, which was then centrifuged (250×g, 5 min) to pellet the cells. The cells were resuspended in FACS buffer (PBS+1% FCS+0.2% sodium azide) to a cell concentration of 1×10^6 cells/mL and 100 μL was used per well (1×10^5 cells/well) for the flow cytometry staining in a 96-well round bottomed plate (Nunc 163320). For adherent N87 cells the supernatant and wash were discarded, and only the Accutase-detached cells were collected and prepared.
(§2) This mixture was serially diluted 1 in 4 down to a Fynomer concentration of 0.06 nM (8 concentrations in total). […] Cells were centrifuged in the 96-well plate (250× g, 5 min) and were resuspended with the samples indicated above, before incubation on ice for 1 hr. The plate was centrifuged and washed (PBS+0.2% sodium azide), before centrifuging again. Then 50 μL of the secondary antibody anti-mIgG Alexa488 (Life Technologies A21202) was added to the cells at a concentration of 4 pg/mL, before incubating in the dark, on ice, for 45 min. The plate was centrifuged and washed twice with PBS+0.2% sodium azide, before resuspending in FACS buffer and FACS analysis (Millipore Guava easyCyte 8HT).
(§3) FACS data analysis was performed using Prism 6. The data was transformed (X=log X), and analyzed using a non-linear fit, log(agonist) vs. response—Variable slope (4 parameters).

[1] = biological target: T2, huFGFR3 on FGFR3-positive KMS-11 cells (Homo sapiens, UniProt P22607, Y373C); test: Affinity measurement by flow cytometry, KMS-11; assay type: binding
T2 construct: host or cells: KMS-11
T2 sequence (P22607 23-806 Y373C): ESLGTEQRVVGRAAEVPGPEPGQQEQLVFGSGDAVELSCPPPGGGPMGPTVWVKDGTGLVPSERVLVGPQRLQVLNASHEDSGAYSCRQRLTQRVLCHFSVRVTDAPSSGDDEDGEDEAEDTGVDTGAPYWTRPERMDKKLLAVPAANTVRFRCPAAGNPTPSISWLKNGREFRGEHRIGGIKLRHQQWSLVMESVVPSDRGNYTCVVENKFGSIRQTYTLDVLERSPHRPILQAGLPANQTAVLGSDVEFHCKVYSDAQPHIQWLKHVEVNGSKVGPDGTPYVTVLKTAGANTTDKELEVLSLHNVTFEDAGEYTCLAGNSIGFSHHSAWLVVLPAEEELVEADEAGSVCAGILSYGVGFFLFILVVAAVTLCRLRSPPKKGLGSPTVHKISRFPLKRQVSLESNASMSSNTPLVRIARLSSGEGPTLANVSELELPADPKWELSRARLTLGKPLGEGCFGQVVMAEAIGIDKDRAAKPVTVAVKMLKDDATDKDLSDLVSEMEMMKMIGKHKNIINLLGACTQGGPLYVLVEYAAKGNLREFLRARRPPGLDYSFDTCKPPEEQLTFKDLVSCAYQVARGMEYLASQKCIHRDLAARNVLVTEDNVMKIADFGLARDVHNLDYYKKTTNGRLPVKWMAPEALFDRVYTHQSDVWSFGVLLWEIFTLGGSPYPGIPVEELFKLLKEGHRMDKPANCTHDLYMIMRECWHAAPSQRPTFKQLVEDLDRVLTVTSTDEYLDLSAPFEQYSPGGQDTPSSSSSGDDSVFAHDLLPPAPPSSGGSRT
Description: as §1, §2, §3

Human CD138 His = biological target: T1, Human CD138 His; test: SPR kinetic binding, human CD138; details: bivalent analyte fit
Description: Murine IgGs were purified from the hybridoma supernatants and the IgGs were subject to SPR (surface plasmon resonance) for kinetic binding measurements. Human or mouse CD138 His was immobilized on a GLM chip at […] on a BioRad Proteon. […] KDs were measured using bivalent analyte fit.

mouse FGFR3c = mouse FGFR3c (Mus musculus, UniProt Q61851); test: mFGFR3c ELISA of bi-specific binding agents; details: NB = No binding
Chain of mouse FGFR3c (Q61851 21-801): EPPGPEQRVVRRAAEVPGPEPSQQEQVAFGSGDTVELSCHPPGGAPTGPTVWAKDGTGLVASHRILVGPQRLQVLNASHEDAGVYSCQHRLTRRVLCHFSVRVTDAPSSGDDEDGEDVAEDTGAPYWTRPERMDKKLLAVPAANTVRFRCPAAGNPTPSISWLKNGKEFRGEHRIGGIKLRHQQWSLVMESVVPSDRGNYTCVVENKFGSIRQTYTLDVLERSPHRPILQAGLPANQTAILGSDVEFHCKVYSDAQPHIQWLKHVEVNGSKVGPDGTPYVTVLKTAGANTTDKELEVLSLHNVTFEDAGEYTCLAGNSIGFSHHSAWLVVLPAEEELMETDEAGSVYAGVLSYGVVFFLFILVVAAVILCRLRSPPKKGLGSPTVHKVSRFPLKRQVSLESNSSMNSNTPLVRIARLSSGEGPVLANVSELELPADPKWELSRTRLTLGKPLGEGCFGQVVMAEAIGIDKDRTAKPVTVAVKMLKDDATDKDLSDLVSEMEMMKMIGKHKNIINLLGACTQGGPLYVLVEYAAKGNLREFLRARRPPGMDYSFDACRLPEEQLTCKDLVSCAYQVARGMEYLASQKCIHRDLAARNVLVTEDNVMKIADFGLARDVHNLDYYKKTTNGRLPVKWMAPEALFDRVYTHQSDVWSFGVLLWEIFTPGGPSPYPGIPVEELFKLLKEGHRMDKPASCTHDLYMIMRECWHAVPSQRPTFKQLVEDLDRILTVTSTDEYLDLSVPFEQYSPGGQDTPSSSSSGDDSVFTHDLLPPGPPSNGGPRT
Text: Similarly, for expression of hF6 comprising G7 fused to the C-terminus of the heavy chain, a nucleic acid construct was generated comprising a coding region directing the expression of the hF6 heavy chain located 5′ of, and in-frame with, a sequence encoding the linker and a coding region directing the expression of G7. For expression of hF6 comprising G7 fused to the N-terminus of the light chain, a nucleic acid construct was generated comprising a coding region directing the expression of G7 located 5′ of, and in-frame with, a sequence encoding the linker and a coding region directing the expression of the hF6 light chain. For expression of hF6 comprising G7 fused to the C-terminus of the light chain, a nucleic acid construct was generated comprising a coding region directing the expression of the hF6 light chain located 5′ of, and in-frame with, a sequence encoding the linker and a coding region directing the expression of G7. The indicated constructs were then co-transfected into CHO cells with a nucleic acid construct directing the expression of the corresponding heavy or light chain of hF6.

[2] = KMS-11, 5 days, Fynomer:9E10-MMAF 3:1, Cell titer glo, read-out: EC50 (nM) in internalization assays
[3] = flow cytometry, Fynomer cross-linked with 9E10, read-out: EC50 (nM) on FGFR3-positive KMS-11 cells

| Molecule | EC50 (FGFR3+ KMS-11 cells; [2]) | binding to FGFR3 negative control cell line N87 (FGFR3-negative N87 cells) | EC50 [1, 3] | also measured |
| --- | --- | --- | --- | --- |
| B1 | 28.5 nM and 21 nM and 26.4 nM | no binding |  |  |
| B2 | 0.8 nM | no binding | 1.2 nM |  |
| B3 | 1.8 nM | no binding | 0.6 nM |  |
| B4 | 2.6 nM | no binding | 4.2 nM |  |
| B5 | 2.5 nM | no binding | 2.2 nM |  |
| B6 | 2.4 nM | no binding | 2.3 nM |  |
| B7 |  |  |  | hCD138 ka (Human CD138 His): 631000 M⁻¹ s⁻¹; hCD138 kd (Human CD138 His): 0.018 s⁻¹ |
| B8 |  |  |  | EC50 (FGFR3+ KMS-11 cells; Table 28 part 2, read-out: EC50 (nM) in internalization assay): 4.7 nM; EC50 ([1]; Table 28 part 2, read-out: EC50 (nM) for binding to FGFR3+ KMS-11 cells): 6.6 nM |
| B9 |  |  |  | EC50 (mouse FGFR3c): 0.94 nM |
| B10 |  |  |  | EC50 (mouse FGFR3c): 0.49 nM |
| B11 |  |  |  | EC50 (mouse FGFR3c): 0.91 nM |

Positions count from the first letter of the chain named. Values joined by “and” are separate entries in the source; they are usually repeats but may differ in a detail not shown here. Equal values may be shown once. Read-outs that look alike come from different tables or passages of the source.
